The record followed here is PMC9911399, “Two distinct binding modes provide the RNA-binding protein RbFox with extraordinary sequence specificity”.

Residue numbers refer to the chain shown, from its start. Some of the results follow.

B1: UUUUUGC (DNA:RNA)
RNA: GGGAGACCGGAAUUCAGAUUGUCCUUUUUGCUUAAAUCCCGUCGUAGCCACCA
DNA 1: CAATCTGAATTCCGGTCTCCC
DNA 2: TGGTGGCTACGACGGGATT
B2: AGCCCAA (DNA:RNA)
RNA: GGGAGACCGGAAUUCAGAUUGUCCAGCCCAAUUAAAUCCCGUCGUAGCCACCA
DNA 1: CAATCTGAATTCCGGTCTCCC
DNA 2: TGGTGGCTACGACGGGATT
B3: AUUGCUA (DNA:RNA)
RNA: B2 RNA with G26U, C27U, C28G, A30U
DNA 1: CAATCTGAATTCCGGTCTCCC
DNA 2: TGGTGGCTACGACGGGATT
B4: GCAUAAU (DNA:RNA)
RNA: B2 RNA with A25G, G26C, C27A, C28U, C29A, A31U
DNA 1: CAATCTGAATTCCGGTCTCCC
DNA 2: TGGTGGCTACGACGGGATT
B5: GCUGUCA (DNA:RNA)
RNA: B1 RNA with U25G, U26C, U28G, G30C, C31A
DNA 1: CAATCTGAATTCCGGTCTCCC
DNA 2: TGGTGGCTACGACGGGATT
B6: ACGACGA (DNA:RNA)
RNA: B2 RNA with G26C, C27G, C28A, A30G
DNA 1: CAATCTGAATTCCGGTCTCCC
DNA 2: TGGTGGCTACGACGGGATT
B7: UCGUAGA (DNA:RNA)
RNA: B1 RNA with U26C, U27G, U29A, C31A
DNA 1: CAATCTGAATTCCGGTCTCCC
DNA 2: TGGTGGCTACGACGGGATT
B8: GGUUACU (DNA:RNA)
RNA: B1 RNA with U25G, U26G, U29A, G30C, C31U
DNA 1: CAATCTGAATTCCGGTCTCCC
DNA 2: TGGTGGCTACGACGGGATT
B9: UUGCAUG (DNA:RNA)
RNA: B1 RNA with U27G, U28C, U29A, G30U, C31G
DNA 1: CAATCTGAATTCCGGTCTCCC
DNA 2: TGGTGGCTACGACGGGATT
B10: ACUAGCU (DNA:RNA)
RNA: B2 RNA with G26C, C27U, C28A, C29G, A30C, A31U
DNA 1: CAATCTGAATTCCGGTCTCCC
DNA 2: TGGTGGCTACGACGGGATT
B11: GAACACC (DNA:RNA)
RNA: B2 RNA with A25G, G26A, C27A, C29A, A30C, A31C
DNA 1: CAATCTGAATTCCGGTCTCCC
DNA 2: TGGTGGCTACGACGGGATT
B12: GGAUCCC (DNA:RNA)
RNA: B2 RNA with A25G, C27A, C28U, A30C, A31C
DNA 1: CAATCTGAATTCCGGTCTCCC
DNA 2: TGGTGGCTACGACGGGATT
B13: GACUCGG (DNA:RNA)
RNA: B2 RNA with A25G, G26A, C28U, A30G, A31G
DNA 1: CAATCTGAATTCCGGTCTCCC
DNA 2: TGGTGGCTACGACGGGATT
B14: AGCGGCC (DNA:RNA)
RNA: B2 RNA with C28G, C29G, A30C, A31C
DNA 1: CAATCTGAATTCCGGTCTCCC
DNA 2: TGGTGGCTACGACGGGATT
B15: CCCGCGC (DNA:RNA)
RNA: B2 RNA with A25C, G26C, C28G, A30G, A31C
DNA 1: CAATCTGAATTCCGGTCTCCC
DNA 2: TGGTGGCTACGACGGGATT
B16: UGGUGAA (DNA:RNA)
RNA: B2 RNA with A25U, C27G, C28U, C29G
DNA 1: CAATCTGAATTCCGGTCTCCC
DNA 2: TGGTGGCTACGACGGGATT
B17: CUGGUGC (DNA:RNA)
RNA: B1 RNA with U25C, U27G, U28G
DNA 1: CAATCTGAATTCCGGTCTCCC
DNA 2: TGGTGGCTACGACGGGATT
B18: GAUUUCC (DNA:RNA)
RNA: B1 RNA with U25G, U26A, G30C
DNA 1: CAATCTGAATTCCGGTCTCCC
DNA 2: TGGTGGCTACGACGGGATT
B19: GGGGAGU (DNA:RNA)
RNA: B2 RNA with A25G, C27G, C28G, C29A, A30G, A31U
DNA 1: CAATCTGAATTCCGGTCTCCC
DNA 2: TGGTGGCTACGACGGGATT
B20: GGGCGCU (DNA:RNA)
RNA: B2 RNA with A25G, C27G, C29G, A30C, A31U
DNA 1: CAATCTGAATTCCGGTCTCCC
DNA 2: TGGTGGCTACGACGGGATT
B21: CCACCCA (DNA:RNA)
RNA: B2 RNA with A25C, G26C, C27A, A30C
DNA 1: CAATCTGAATTCCGGTCTCCC
DNA 2: TGGTGGCTACGACGGGATT
B22: CCUCGAG (DNA:RNA)
RNA: B2 RNA with A25C, G26C, C27U, C29G, A31G
DNA 1: CAATCTGAATTCCGGTCTCCC
DNA 2: TGGTGGCTACGACGGGATT
B23: CUCAGUC (DNA:RNA)
RNA: B1 RNA with U25C, U27C, U28A, U29G, G30U
DNA 1: CAATCTGAATTCCGGTCTCCC
DNA 2: TGGTGGCTACGACGGGATT
B24: UGGCAGA (DNA:RNA)
RNA: B2 RNA with A25U, C27G, C29A, A30G
DNA 1: CAATCTGAATTCCGGTCTCCC
DNA 2: TGGTGGCTACGACGGGATT
B25: CUGUAGA (DNA:RNA)
RNA: B1 RNA with U25C, U27G, U29A, C31A
DNA 1: CAATCTGAATTCCGGTCTCCC
DNA 2: TGGTGGCTACGACGGGATT
B26: GGCCCAC (DNA:RNA)
RNA: B2 RNA with A25G, A31C
DNA 1: CAATCTGAATTCCGGTCTCCC
DNA 2: TGGTGGCTACGACGGGATT
B27: UGUGAGU (DNA:RNA)
RNA: B1 RNA with U26G, U28G, U29A, C31U
DNA 1: CAATCTGAATTCCGGTCTCCC
DNA 2: TGGTGGCTACGACGGGATT
B28: CUGUGAU (DNA:RNA)
RNA: B1 RNA with U25C, U27G, U29G, G30A, C31U
DNA 1: CAATCTGAATTCCGGTCTCCC
DNA 2: TGGTGGCTACGACGGGATT
B29: UACGAUA (DNA:RNA)
RNA: B2 RNA with A25U, G26A, C28G, C29A, A30U
DNA 1: CAATCTGAATTCCGGTCTCCC
DNA 2: TGGTGGCTACGACGGGATT
B30: ACAAAGC (DNA:RNA)
RNA: B1 RNA with U25A, U26C, U27A, U28A, U29A
DNA 1: CAATCTGAATTCCGGTCTCCC
DNA 2: TGGTGGCTACGACGGGATT
B31: UUGCUCG (DNA:RNA)
RNA: B1 RNA with U27G, U28C, G30C, C31G
DNA 1: CAATCTGAATTCCGGTCTCCC
DNA 2: TGGTGGCTACGACGGGATT

In this assay the target is T1, RBFOX1 RRM RbFoxmut (Fox-RRM*) (Homo sapiens, UniProt Q9NWB1 109-208, R118D;E147R;N151S;E152T).
T1 sequence: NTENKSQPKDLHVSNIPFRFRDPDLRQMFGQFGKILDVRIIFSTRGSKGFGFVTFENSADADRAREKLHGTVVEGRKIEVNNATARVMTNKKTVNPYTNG
The assay is described as follows: EMSA; HiTS-Eq, 1 nM pool, 10 min; buffer printed only for the single-RNA assays: 10 mM Tris pH 7.5, 150 mM NaCl, 3.4 mM EDTA, 0.001% NP-40, 30 C. The following applies: tags: His6 N-terminal (pET28a); label: 5' 32P. In outline: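 These values rest on relative association constants, computed from read-count changes of each RNA species versus the control reaction and normalised to the cognate motif. Reads came from free RNA recovered by 8% native PAGE after purified RbFox RRM (wild type or mutant) at increasing concentrations was equilibrated for 10 min in 50 µL with 1 nM of a 5′-radiolabelled pool with 7 randomized nucleotides and DNA-annealed flanks.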
In the case of B1, the binding signal is 0.0943 KA relative to UGCAUGU.

In the case of B2, the binding signal is 0.085 KA relative to UGCAUGU.

In the case of B3, the binding signal was 0.165 KA relative to UGCAUGU.

As for B4, the binding signal was 0.115 KA relative to UGCAUGU.

Regarding B5, the binding signal is 0.084 KA relative to UGCAUGU.

On to B6, for which the binding signal was 0.0741 KA relative to UGCAUGU.

On to B7, for which the binding signal was 0.125 KA relative to UGCAUGU.

As for B8, the binding signal was 0.0688 KA relative to UGCAUGU.

With B9, the binding signal was 0.909 KA relative to UGCAUGU.

For B10, the binding signal was 0.127 KA relative to UGCAUGU.

Regarding B11, the binding signal was 0.0368 KA relative to UGCAUGU.

Take B12: the binding signal was 0.134 KA relative to UGCAUGU.

With B13, the binding signal was 0.082 KA relative to UGCAUGU.

For the molecule B14, the binding signal was 0.224 KA relative to UGCAUGU.

Regarding B15, the binding signal is 0.0883 KA relative to UGCAUGU.

As for B16, the binding signal is 0.117 KA relative to UGCAUGU.

For B17, the binding signal is 0.0874 KA relative to UGCAUGU.

For the molecule B18, the binding signal was 0.0366 KA relative to UGCAUGU.

On to B19, for which the binding signal is 0.12 KA relative to UGCAUGU.

Regarding B20, the binding signal was 0.0836 KA relative to UGCAUGU.

In the case of B21, the binding signal is 0.0929 KA relative to UGCAUGU.

B22: the binding signal was 0.108 KA relative to UGCAUGU.

Turning to B23, the binding signal was 0.0711 KA relative to UGCAUGU.

On to B24, for which the binding signal was 0.0918 KA relative to UGCAUGU.

As for B25, the binding signal is 0.148 KA relative to UGCAUGU.

As to B26, the binding signal is 0.0736 KA relative to UGCAUGU.

B27: the binding signal is 0.17 KA relative to UGCAUGU.

Regarding B28, the binding signal is 0.0941 KA relative to UGCAUGU.

With B29, the binding signal was 0.123 KA relative to UGCAUGU.

Take B30: the binding signal was 0.1 KA relative to UGCAUGU.

As to B31, the binding signal is 0.275 KA relative to UGCAUGU.
